In PubChem BioAssay AID1963576 (National Center for Advancing Translational Sciences (NCATS), 2024):
Out of some 46,000 compounds screened, about 60 (0.1%) were called active. About 3% were inconclusive and are not listed. Calls come from the whole dose curve; as a rule, active = well fitted inhibition curve with a large enough effect; inconclusive = small, poorly fitted or top-dose-only effect; inactive = no such curve, though single readings can be large or run the other way. This is one part of the list.

Assay: Primary qHTS assay for Inhibitors of ovarian cancer metastasis using an organotypic tumor microenvironment (TME) model.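 For activity change, negative = inhibition: plate controls were DMSO wells for no effect and tomatine positive control wells for full effect.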 Note: nearly all actives have a fitted effect of over 65% in size.
Conditions: SKOV3ip1-GFP adhesion/invasion on 3D omental model, fluorescence; series mostly up to 45.8 µM; activity change, negative = inhibition: at the top concentration
In short: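 qHTS, 4-pt dose (0.36-46 umol/L); SKOV3ip1-GFP, 1,200 cells/well, no FBS; primary omental fibroblast/mesothelial co-culture 48 h pre-grown; 2 h RT + 16 h 37 C; PBS wash, 4% PFA; GFP count 488/509 nm.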

Activity change, negative = inhibition, inactive:
O=c1[nH]c2ccc(NCc3ccc(-c4ccc(Br)cc4)o3)cc2[nH]1 -23.3%, COc1cccc(CNC(=O)C2CCN(S(=O)(=O)c3ccc4c(c3)CCCN4C(C)=O)CC2)c1 -24.6%, Cc1ccc2c(c1)N(CCCC(=O)Nc1cccc(C(F)(F)F)c1)C(=O)CO2 15.6%, CCOC(=O)c1[nH]c2ccccc2c1NC(=O)c1ccc(Br)cc1 -11.7%, Cc1ccc(-c2cc(C(=O)NCc3ccccc3Cl)c3ccccc3n2)cc1C 5.14%, COc1ccc2cc3c(N)nn(C(=O)c4ccc(OC)c(OC)c4)c3nc2c1 1.81%, O=C(Nc1ccccc1C(F)(F)F)n1ncc2cc(Cl)ccc21 4.96%, CCCCN1C(=O)C(O)(CC(=O)c2ccc(C(C)(C)C)cc2)c2ccccc21 (stereo not given) -12.4%, CCOc1ccc(-c2nc3c(c(SCC(=O)N4CCCCC4)n2)Cc2cccc(OC)c2O3)cc1 8.95%, Cc1ccc2nc3c(cc(C#N)c(=O)n3-c3nnc(SCc4ccccc4)s3)c(=O)n2c1 3.66%, COc1cc(NC(=O)Cn2cc(C(=O)c3ccc(F)cc3)c(=O)c3ccc(C)nc32)cc(OC)c1 -25.3%, CCOc1ccc(NC(=O)c2ncoc2-c2ccco2)cc1 -3.62%, O=C(Cn1c(=O)nc(-c2ccccc2)c2cc(Cl)ccc21)Nc1ccc(F)c(Cl)c1 -1.77%, CC(=O)c1sc(N2C(=O)c3oc4ccccc4c(=O)c3C2c2ccc(C)cc2)nc1C (stereo not given) -9.88%, CC(=O)c1ccc(NC(=O)Cn2nc(N3CCN(c4ccccc4)CC3)ccc2=O)cc1 -0.471%, COc1ccccc1OC(C)C(=O)Nc1cccc(-c2nc3ccccc3o2)c1 (stereo not given) -0.75%, CCCn1c2ccccc2c2nnc(SCC(=O)Nc3cccc(C(C)=O)c3)nc21 1.35%, Cc1ccc(NC(=O)c2cnn3c2NC(c2ccccc2)=CC3c2ccccc2)cc1 (stereo not given) -24.8%, CCC(Sc1nnc(C)n2c1cc1occc12)C(=O)Nc1ccccc1OC (stereo not given) -1.82%, Cc1coc2c1C(=O)C(=O)c1c-2ccc2c(C)cccc12 0.546%, CCc1ccc(NS(=O)(=O)c2ccc3[nH]cc(C(=O)NCCCOC(C)C)c(=O)c3c2)cc1 2.76%, CCCSc1nc2c([nH]c3ccccc32)c(=O)n1C -0.334%, CN1C(C(=O)Nc2ccc(OC(F)(F)F)cc2)=CC(c2cccs2)=NS1(=O)=O -25.7%, COc1cccc(NC(=O)Cn2c(=O)n(Cc3ccccc3)c(=O)c3ccccc32)c1 12.5%, CCOc1cc(CNC(=O)CN2CCSc3ccccc32)cc(OCC)c1OCC 36.1%, O=C(Nc1ccccc1Cl)c1sc2cccc(Cl)c2c1Cl 39.3%, COc1ccc(NC(=O)c2oc3ccccc3c2NC(=O)COc2ccc(C(C)C)cc2)c(OC)c1 -22.8%, CCOC(=O)c1c(NC(=O)c2ccc(OC)cc2)sc2c1CCCCC2 -2.92%, COc1ccc(-n2c(=O)[nH]c3cc(C(=O)NCCc4ccccc4)ccc3c2=O)cc1OC 7.79%, CCCS(=O)(=O)c1nc(S(=O)(=O)c2ccc(C)cc2)c(NC)s1 -2.4%, Cc1ccc(-n2ncc(C(=O)N3CCCCC3)c2C2CCN(C(=O)OC(C)(C)C)CC2)c(C)c1 0.841%, CN(C)c1ccc(CNC(=O)Cn2c(=O)oc3cc(S(=O)(=O)N4CCCCCC4)ccc32)cc1 -1.11%, Cc1ccc(NC(=O)Cc2coc3ccc(C(C)C)cc23)cc1Cl -21.1%, COc1ccc(-c2nc3c(c(SCC(=O)N4CCCCC4)n2)Cc2cc(Cl)ccc2O3)cc1 -12.5%, COC(=O)c1sccc1S(=O)(=O)N(CC(=O)NCc1ccc(C)cc1)c1ccc(C)cc1 4.29%, Fc1ccc(-c2nc(Nc3cccc(C(F)(F)F)c3)nc3c2COc2ccccc2-3)cc1 -7.46%, COc1cc(Nc2nc3ccccc3nc2NS(=O)(=O)c2ccc(NC(=O)c3ccc(C)c(OC)c3)cc2)cc(OC)c1 6.33%, Cc1ccccc1-n1c(Cn2nc(-c3cccc(O)c3)c3c(N)ncnc32)nc2cccc(C)c2c1=O 6.43%, COc1ccc(-n2c(SCC(=O)NCc3ccc(C)cc3)nc3n[nH]c(C)c3c2=N)cc1 8.37%, O=C(CCC1N=C2c3ccccc3N=C(SCc3ccc(Cl)cc3)N2C1=O)N1CCN(c2ccccc2)CC1 (stereo not given) 4.13%, COc1ccc(C2C=C(c3ccc(Cl)c(Cl)c3)Nc3ncnn32)cc1 (stereo not given) 4.23%, COc1cc(OC)c(NS(=O)(=O)c2ccc3oc(=O)c4ncn(C)c4c3c2)cc1Cl 1.66%, O=C(CSc1nnc(-c2ccc(F)cc2)o1)N1CCCc2ccccc21 -5.8%, Cc1ccc(CSc2nnc3[nH]c(=O)cc(-c4ccccc4)n23)cc1 -20.2%, CC(C)(C)c1ccc(OCc2nnc(-c3ccccc3)o2)cc1 1.76%, CCn1cc(C(=O)NCc2ccc(Cl)cc2)c(=O)c2cc(S(=O)(=O)N(C)C3CCCCC3)ccc21 1.45%, O=C(Cn1ncc2c3ccccc3n(Cc3ccc(F)cc3)c2c1=O)NCc1cccs1 13.3%, CC(CNC(=O)c1ccc2nc(Cc3ccccc3)oc2c1)c1ccccc1 (stereo not given) 4.31%, COc1ccc(NC(=O)CCCn2nc(C)c3sc4ccccc4c3c2=O)cc1 -6.65%, Cc1cc(C(=O)Nc2ccc(-n3c(C)nc4ccccc4c3=O)cc2)ccc1[N+](=O)[O-] -6.16%, CCC(C)Nc1ncnc2c1cnn2-c1ccc(F)cc1 (stereo not given) -2.65%, CC1CCCN(S(=O)(=O)c2ccc3c(c2)CCN3C(=O)CCC(=O)O)C1 (stereo not given) 14.5%, Cc1cccc(Cc2c(C)nc3c(-c4ccccc4)c(C)[nH]n3c2=O)c1 64.8%, O=C(CC1C(=O)N(c2ccc(F)cc2)C(=O)N1Cc1ccc2c(c1)OCO2)Nc1ccc(Cl)cc1 (stereo not given) 0.94%, Cc1ccc(-n2cc(C(=O)Oc3ccc(F)cc3)c3ccccc3c2=O)cc1 10.3%, O=C(CSc1oc(-c2ccccc2)nc1S(=O)(=O)c1ccc(Cl)cc1)c1ccccc1 3.51%, Cc1ccc2c(=O)cc(C(=O)Nc3ccc(S(=O)(=O)Nc4onc(C)c4C)cc3)oc2c1C 0.323%, Cc1cc(C)nc(-n2nc(C)c3c2N(Cc2ccccc2)C(=O)CC3c2ccc(Cl)cc2)n1 (stereo not given) 5.37%, Cc1[nH]c(C=C2C(=O)Nc3ccc(S(=O)(=O)N(C)c4cccc(Cl)c4)cc32)c(C)c1C(=O)N1CCN(C)CC1 12.9%, CCC(=O)N1c2ccccc2CC1C(=O)NCc1cc(OC)ccc1OC (stereo not given) 8.01%, O=C(CCn1c(=O)c2cccn2c2cccnc21)Nc1ccccc1C(F)(F)F -8%, Cc1cc(C)cc(OCC(=O)Nc2c(C(=O)c3ccccc3)oc3ccccc23)c1 2.11%, CCN(C(=O)Cn1c(=O)n(-c2ccccc2)c(=O)c2ccc(C(=O)NCc3ccc4c(c3)OCO4)cc21)c1cccc(C)c1 -28.9%, CCCCn1cnc2cc(NCc3ccc(OCC)cc3)ccc21 -2.53%, CC(C)c1ccc(NC(=O)c2cc(S(=O)(=O)N(C)C3CCCCC3)ccc2F)cc1 2.16%, CCOc1ccc(CNC(=O)C2CCCCN2S(=O)(=O)c2ccc(F)cc2)cc1OC (stereo not given) 0.985%, CCn1cc(S(=O)(=O)c2cccc(C)c2)c(=O)c2cc(F)c(N3CCCC(C)C3)cc21 (stereo not given) 7.04%, O=C(CCC(=O)c1ccc(F)cc1)Nc1ccc(Cl)cc1 -4.37%, NS(=O)(=O)c1ccc(Nc2nc(OCC3CCCCC3)c3[nH]cnc3n2)cc1 41.1%, CCn1c(=O)c2cc(C(=O)NCCCN3CCN(C)CC3)sc2c2ccccc21 -8.43%, COc1ccc(-c2nc3c(c(SC)n2)Cc2c(CO)cnc(C)c2O3)cc1 10%

outcome, inactive:
CCc1ccc(NC(=O)Cn2c(=O)n(CCCCC(=O)NCCc3ccc(Cl)cc3)c(=O)c3ccccc32)cc1, Cc1cccc(CSc2ncc(Cl)c(C(=O)Nc3nc4ccc(F)cc4s3)n2)c1, CCCn1c2ccccc2c2cnn(CC(=O)N3CCN(c4ccccc4)CC3)c(=O)c21, CC(C)NC(=O)c1ccc(NC(=O)N2CCCCc3ccccc32)cc1, CCN(Cc1ccccc1)C(=O)c1cnn(-c2ccc(F)cc2)c1-n1cccc1, Cc1ccc(Cl)cc1N1CCN(S(=O)(=O)c2ccc3c(c2)CCN3C(=O)C2CCC2)CC1, COc1ccccc1CNC(=O)CSC1=Nc2ccccc2N=C(c2ccc(F)cc2)C1, O=C(NCc1cccnc1)c1nn(-c2ccc(F)cc2)nc1CO, CCSc1nc2n(n1)C(c1ccc(C(=O)O)cc1)C(C(=O)Nc1ccccc1C)=C(C)N2 (stereo not given), Cc1ccc(N(CC(=O)Nc2ccc(Cl)cc2)S(=O)(=O)c2cccc3nonc23)cc1, O=C(COc1ccccc1)Nc1ccc2nc(SCC(=O)N3CCOCC3)sc2c1, COc1ccc(N2CCN(CCCNC(=O)Nc3ccccc3)CC2)cc1, CCOC(=O)C1=C(CN2CCN(c3cccc(Cl)c3)CC2)NC(=O)NC1c1ccc(Cl)cc1 (stereo not given), Fc1ccc(C2=CC(c3ccc(F)cc3)n3c(nc4ccccc43)N2)cc1 (stereo not given), Cc1cc(-n2c(C)nc3ccccc3c2=O)ccc1NC(=O)C(F)(F)F, CCN(Cc1ccccc1)S(=O)(=O)c1ccc(-c2coc(C)n2)cc1, COc1ccc(-c2nc(CSCC(=O)N3CCN(c4ccc(F)cc4)CC3)c(C)o2)cc1, COc1ccc(S(=O)(=O)NCCSc2nnnn2-c2ccccc2)cc1, COc1ccc(NS(=O)(=O)c2ccc3nc(-c4ccccc4)[nH]c3c2)cc1, Cc1c(Cl)cccc1NS(=O)(=O)c1ccc(-c2cnc(C3CC3)o2)cc1, CCOc1ccc(NC(=O)c2cc(S(=O)(=O)N3CCc4ccccc43)ccc2F)cc1, O=C(c1ccc2c(c1)N(Cc1ccccc1F)C(=O)c1ccccc1S2(=O)=O)N1CCN(c2ccccn2)CC1, O=C(CSc1n[nH]c(-c2ccccc2Cl)n1)NCc1ccc(F)cc1, Cc1ccccc1NC(=O)c1c(C)oc2ccc(O)c(CN3CCOCC3)c12
